Measured values from PMC12136788.
This is one part of the list.

T1: UNK ZnF1-3 (human, UniProt Q9C0B0 31-174)
T1 sequence: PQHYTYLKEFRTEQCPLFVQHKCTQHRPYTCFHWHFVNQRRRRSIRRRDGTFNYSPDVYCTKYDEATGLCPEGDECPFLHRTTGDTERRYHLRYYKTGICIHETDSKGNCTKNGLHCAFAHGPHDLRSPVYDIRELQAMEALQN

B1: chr4:95690885:95690886:+_ENSMUSG00000028572_ENSMUST00000156910|mus_mus|mus_mus_mus_hu_False|1_68 (ssRNA)
RNA: GGGAGUUCUACAGUCCGACGAUCUUUAGAAAAUGUUAAAUACCAUGCUAAAAUAUUUUCAAAGGCUAGUCUUAUUUUACCAGAAGUCACAGGCAAGCAGACACUACAAGAAUAUAUGAAAAUGAAACUCAACAAUAAAAUGUACAACAGAGGAUUGAGCAUCA
B2: chr14:89338683:89338684:+_ENSG00000165533_ENST00000346301|hu_hu|hu_hu_hu_mus_False|48_108 (ssRNA)
RNA: GGGAGUUCUACAGUCCGACGAUCGUGGUUGUUGUUGACCAGGGCCAGCCUGAAGCAUUGGUGGGCCAAGUUUGUAUCUCCGAUUCCCACAGCUACAUGCCCCAGGUUGUACCAGACAUCAGCUGCCUCUUCUUCAUUUUCAGCCAACAGAGGAUUGAGCAUCA
B3: chr14:62207481:62207482:+_ENSG00000100644_ENST00000337138|hu_hu|FALSE|FALSE (ssRNA)
RNA: GGGAGUUCUACAGUCCGACGAUCGGAACGUAACUGGAAGUCAUCAUCCAUUGGGAUAUAGGGAGCUAACAUCUCCAAGUCUAAAUCUGUGUCCUGAGUAGAAAAUGGGUUCUUUGCUUCUGUGUCUUCAGCAAAAAGUUUUUCCAACAGAGGAUUGAGCAUCA
B4: chrX:71549762:71549763:+_ENSMUSG00000019087_ENSMUST00000019231|mus_mus|mus_mus_mus_hu_False|28_38 (ssRNA)
RNA: GGGAGUUCUACAGUCCGACGAUCAAACCCGUGUACUUCUUAUUGUUAGCACAACAUCACCAGAAAACGAUAACGACAGCCAAGCAGGACAGACAGUCAAGUAGUCUUUCCACACCUCCAAACUCAGGGAGCCCUAUAACCUUACAACAGAGGAUUGAGCAUCA
B5: chr7:149068622:149068623:-_ENSMUSG00000025139_ENSMUST00000001950|mus_hu|mus_mus_mus_hu_False|48_108 (ssRNA)
RNA: GGGAGUUCUACAGUCCGACGAUCGUGCAGGUACUGAGUGUGGCUUGUGGUCUGUCCUGGGUUAGAGUUGUUAAUAUCACGGAACAUACCACUUAAGACGUUCCAGUCCCGCCUGACACCUUCAUUCCCAAUGGAGAAGAAAUCCAACAGAGGAUUGAGCAUCA
B6: chr10:126435856:126435857:+_ENSMUSG00000078429_ENSMUST00000105256|mus_hu|FALSE|FALSE (ssRNA)
RNA: GGGAGUUCUACAGUCCGACGAUCAGUGGAAACCCUUACCUGACCCUUUUCCAAACUGGUCCUGUGUCCAAAGCUCCCCCUAUGAGAGGGACACGAACAUCAGGCUUUUGAUUUAGAAGCCCAAUCAGAGAGACACACUGUGUCCAACAGAGGAUUGAGCAUCA
B7: chr12:46205223:46205224:+_ENSG00000189079_ENST00000334344|hu_hu|FALSE|FALSE (ssRNA)
RNA: GGGAGUUCUACAGUCCGACGAUCCUGUGGCUUUGGAUUGCCUGGUGGUACCUCAUCAUCAUCCUCCCCAAAAUGAUGAACUUUCUCGUACUUUUCUAGGUAACGCAAGUAAUACUGUUUUAAAGCAAAGGCAGCGUUAGAACACAACAGAGGAUUGAGCAUCA
B8: chr16:44739181:44739182:-_ENSMUSG00000022668_ENSMUST00000162512|mus_mus|motif|central (ssRNA)
RNA: GGGAGUUCUACAGUCCGACGAUCUCUCACUUCAUGCACUUGUAUAUGCUCUGGACUUGUCAGUUAAAAUAGAAAAGCCAGCGGGCAUCUGUCCUAAUGACCAAUAUGAUUUAAUUCAUUAUUUGUAACCCUUACCCCCAGCGCCAACAGAGGAUUGAGCAUCA
B9: 60646289_60646409_5073_CDS_ENSG00000081913_ENST00000262719|human|control|control (ssRNA)
RNA: GGGAGUUCUACAGUCCGACGAUCGCUCCUUUCCUGGGGCGCAACAGAGCCAUUGGCCCUCCGGCGCCCAAUGGUCCCAACGGCAGAGAAGUCUGCCUUCCUGGGCAGACCUGGCUCAUCCUCGUUGGCGCUGAUGACAAUGCCCAACAGAGGAUUGAGCAUCA
B10: chr10:80924034:80924035:-_ENSMUSG00000034818_ENSMUST00000118763|mus_mus|FALSE|FALSE (ssRNA)
RNA: GGGAGUUCUACAGUCCGACGAUCUUAAAACUGGAACUAUGGCAGCCAUCCGGGGGUUUCUACCUGAUUCGUGGGUUUCCUAAUCGAAGCCAAAAUAGAUAAAGCCCAAAAGACCCAGAUAAUGGACAAAAAACACUGAAGGAUCAACAGAGGAUUGAGCAUCA
B11: chr5:73930785:73930786:-_ENSG00000171617_ENST00000302351|hu_hu|FALSE|FALSE (ssRNA)
RNA: GGGAGUUCUACAGUCCGACGAUCCUUUGCUGUCACAUCUCCCACCUUGGUCCACUGGUAAGUCUCACUGUUGAAUUUAUAAGCAGAGCAGGCAGAGAAUUCUGUAUCACCCCCCAUAAUAAAAAUCUGGUUCCCCAGCACAGCCAACAGAGGAUUGAGCAUCA
B12: chr7:118215947:118215948:-_ENSMUSG00000005610_ENSMUST00000162415|mus_hu|FALSE|FALSE (ssRNA)
RNA: GGGAGUUCUACAGUCCGACGAUCGGUCCUUGCAAUAGACUGCCUCUGCUUGAGAACUUAUGAUGUAAUUAUUGCAUGCUGCUAAUAUACUAUCUAAACAUUAAAGAUACUCCUAAAAUAUUUGAUGGUAGACUAUGAUUAAGACAACAGAGGAUUGAGCAUCA
B13: chr21:34923711:34923712:+_ENSG00000159140_ENST00000381679|hu_hu|motif|central (ssRNA)
RNA: GGGAGUUCUACAGUCCGACGAUCCAUCUGGGAGUCCAUGGUGUUGGACGCUAGCAUUUGGGAGUCCAUGGUGUUGGAUGCGGAUAUAUGGGUCUCCAUGGUGUUAGAAGCUAAUAUAUGGGAUUCUGGGGCCAUCAAGGGAUCCAACAGAGGAUUGAGCAUCA
B14: chr13:100201144:100201145:-_ENSMUSG00000052727_ENSMUST00000064762|mus_mus|FALSE|FALSE (ssRNA)
RNA: GGGAGUUCUACAGUCCGACGAUCCUCUUCCGUUGGCGGGAUCUUAUGCGACAAACUAGAGUCCUGGAUAUCAGAGGGACUAUAGUCCACUUCAGUUGGCCCGUUUUCAGUGAUAUGAAGCACACUGGCACCCAGAGUAGGGUGCAACAGAGGAUUGAGCAUCA

target: T1, UNK ZnF1-3; experiment: nsRBNS (natural sequence RNA bind-n-seq); RBNS binding buffer (assumed for nsRBNS): 25 mM Tris pH 7.5, 150 mM KCl, 3 mM MgCl2, 0.01% Triton X-100, 500 ug/ml BSA, 20 U/ml SUPERase-In, 4 C; UNK is unkempt and MSI1 is Musashi-1; names of the RNAs are library labels; protein concentration not given here; high values mean tight binding

Point of comparison: B12, binding signal 0.959 enrichment R. Against it:
- B1 — higher, 1.09 enrichment R
- B2 — lower, 0.538 enrichment R
- B3 — higher, 1.21 enrichment R
- B4 — higher, 1.3 enrichment R
- B5 — lower, 0.693 enrichment R
- B6 — lower, 0.797 enrichment R
- B7 — lower, 0.846 enrichment R
- B8 — higher, 1.89 enrichment R
- B9 — lower, 0.466 enrichment R
- B10 — higher, 1.52 enrichment R
- B11 — higher, 3.24 enrichment R
- B13 — higher, 1.77 enrichment R
- B14 — higher, 1.23 enrichment R
